Experimental data from patent publication US20110319597A1 (CAPHALON AUSTRALIA, published 2011).

Biological target: T1, recombinant human TNFα (CytoLab) (human, UniProt P01375 part only)
T1 construct: coated on the ELISA plate at 1 µg/ml; also called Tumour necrosis factor alpha
Test: ELISA on coated human TNFα

T1 sequence (P01375 77-233 limits assumed): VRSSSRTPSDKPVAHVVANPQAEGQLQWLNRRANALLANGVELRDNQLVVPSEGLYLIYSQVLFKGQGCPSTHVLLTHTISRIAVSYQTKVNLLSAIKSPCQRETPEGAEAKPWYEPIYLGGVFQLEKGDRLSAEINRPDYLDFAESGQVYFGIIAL

A450 (AU)	Binder
0.76 AU	TNFα dAb Fc variant T69P (Fc fusion, name in Kabat numbering) DIQMTQSPSSLSASVGDRVTITCRASQAIDSYLHWYQQKPGKAPKLLIYSASNLETGVPSRFSGSGSGPDFTLTISSLLPEDFATYYCQQVVWRPFTFGQGTKVEIKRV[human IgG1 Fc with changes left out]
0.905 AU	TNFα dAb Fc variant T72A (Fc fusion, name in Kabat numbering) DIQMTQSPSSLSASVGDRVTITCRASQAIDSYLHWYQQKPGKAPKLLIYSASNLETGVPSRFSGSGSGTDFALTISSLLPEDFATYYCQQVVWRPFTFGQGTKVEIKRV[human IgG1 Fc with changes left out]
0.916 AU	TNFα dAb Fc variant T72D (Fc fusion, name in Kabat numbering) DIQMTQSPSSLSASVGDRVTITCRASQAIDSYLHWYQQKPGKAPKLLIYSASNLETGVPSRFSGSGSGTDFDLTISSLLPEDFATYYCQQVVWRPFTFGQGTKVEIKRV[human IgG1 Fc with changes left out]
0.936 AU	TNFα dAb Fc variant T72K (Fc fusion, name in Kabat numbering) DIQMTQSPSSLSASVGDRVTITCRASQAIDSYLHWYQQKPGKAPKLLIYSASNLETGVPSRFSGSGSGTDFKLTISSLLPEDFATYYCQQVVWRPFTFGQGTKVEIKRV[human IgG1 Fc with changes left out]
1.04 AU	TNFα dAb Fc variant T72L (Fc fusion, name in Kabat numbering) DIQMTQSPSSLSASVGDRVTITCRASQAIDSYLHWYQQKPGKAPKLLIYSASNLETGVPSRFSGSGSGTDFLLTISSLLPEDFATYYCQQVVWRPFTFGQGTKVEIKRV[human IgG1 Fc with changes left out]
0.966 AU	TNFα dAb Fc variant T72Q (Fc fusion, name in Kabat numbering) DIQMTQSPSSLSASVGDRVTITCRASQAIDSYLHWYQQKPGKAPKLLIYSASNLETGVPSRFSGSGSGTDFQLTISSLLPEDFATYYCQQVVWRPFTFGQGTKVEIKRV[human IgG1 Fc with changes left out]
0.906 AU	TNFα dAb Fc variant T74A (Fc fusion, name in Kabat numbering) DIQMTQSPSSLSASVGDRVTITCRASQAIDSYLHWYQQKPGKAPKLLIYSASNLETGVPSRFSGSGSGTDFTLAISSLLPEDFATYYCQQVVWRPFTFGQGTKVEIKRV[human IgG1 Fc with changes left out]
0.905 AU	TNFα dAb Fc variant T74K (Fc fusion, name in Kabat numbering) DIQMTQSPSSLSASVGDRVTITCRASQAIDSYLHWYQQKPGKAPKLLIYSASNLETGVPSRFSGSGSGTDFTLKISSLLPEDFATYYCQQVVWRPFTFGQGTKVEIKRV[human IgG1 Fc with changes left out]
0.962 AU	TNFα dAb Fc variant T74D (Fc fusion, name in Kabat numbering) DIQMTQSPSSLSASVGDRVTITCRASQAIDSYLHWYQQKPGKAPKLLIYSASNLETGVPSRFSGSGSGTDFTLDISSLLPEDFATYYCQQVVWRPFTFGQGTKVEIKRV[human IgG1 Fc with changes left out]
0.929 AU	TNFα dAb Fc variant T74H (Fc fusion, name in Kabat numbering) DIQMTQSPSSLSASVGDRVTITCRASQAIDSYLHWYQQKPGKAPKLLIYSASNLETGVPSRFSGSGSGTDFTLHISSLLPEDFATYYCQQVVWRPFTFGQGTKVEIKRV[human IgG1 Fc with changes left out]
0.193 AU	TNFα dAb Fc variant T72Y (Fc fusion, name in Kabat numbering) DIQMTQSPSSLSASVGDRVTITCRASQAIDSYLHWYQQKPGKAPKLLIYSASNLETGVPSRFSGSGSGTDFYLTISSLLPEDFATYYCQQVVWRPFTFGQGTKVEIKRV[human IgG1 Fc with changes left out]
0.149 AU	TNFα dAb Fc variant T72P (Fc fusion, name in Kabat numbering) DIQMTQSPSSLSASVGDRVTITCRASQAIDSYLHWYQQKPGKAPKLLIYSASNLETGVPSRFSGSGSGTDFPLTISSLLPEDFATYYCQQVVWRPFTFGQGTKVEIKRV[human IgG1 Fc with changes left out]
